According to PubChem BioAssay AID1346428 (National Center for Advancing Translational Sciences (NCATS), 2018):
Hit rate of the full screen: of about 48,000 compounds, about 1,200 (2.5%) were called active. Roughly 2% stayed inconclusive and do not appear here.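 How the source made its calls: active means activation of at least 60% and not above a set upper limit (about 1 call in 100 departs from these limits); inconclusive means activation of 40% to 60%, or above that upper limit; inactive means activation under 40%.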 This is one part of the list.

target: Probable G-protein coupled receptor 32 (Homo sapiens) (UniProt O75388); assay: qHTS for Agonists of Human Resolvin D1 Receptor DRV1; conditions: CHO-K1 GPR32 beta-arrestin PathHunter luminescence, 90 min; at 76.9 µM; stronger effect = higher value; zero percent set by DMSO-only wells; further: 0% is about no effect
Method in brief: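 Engineered CHO-K1 line co-expressing GPR32-ProLink and EA-beta-arrestin. Compound treatment lasted 90 min at 37 °C. Luminescence was recorded after 1 h with substrate at ambient temperature, relative to DMSO basal wells.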

UniProt O75388, sequence (O75388 whole entry, looked up): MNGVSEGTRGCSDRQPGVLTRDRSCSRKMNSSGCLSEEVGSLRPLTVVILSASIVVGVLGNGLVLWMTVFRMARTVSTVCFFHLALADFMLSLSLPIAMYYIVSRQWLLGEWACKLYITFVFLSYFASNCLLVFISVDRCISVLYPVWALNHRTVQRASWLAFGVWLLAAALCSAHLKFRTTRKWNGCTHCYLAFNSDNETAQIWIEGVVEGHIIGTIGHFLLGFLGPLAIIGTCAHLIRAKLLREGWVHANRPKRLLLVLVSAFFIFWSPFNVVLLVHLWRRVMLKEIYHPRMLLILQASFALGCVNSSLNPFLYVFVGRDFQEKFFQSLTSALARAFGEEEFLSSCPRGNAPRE

activation, inactive:
COC(=O)c1cc(NC(=O)CC2C(=O)OCCN2Cc2ccccc2)cc(C(=O)OC)c1 (stereo not drawn) 2.06%
CN(c1nnc(NC(=O)Nc2ccccc2C(F)(F)F)s1)C1CCCCC1 -28.1%
NC(=O)N1c2ccccc2CC(=O)c2ccccc21 -8.27%
COc1ccc(NC(=O)Cn2c(=O)c3ccccc3n3nncc23)cc1Cl 5.8%
Cc1cccc(OCC(=O)N2CCC(c3nc4ccccc4o3)CC2)c1C -8.01%
Cc1cc(C)c2c(=O)cc(C(=O)Nc3sc4c(c3C(=O)NCc3ccco3)CCCC4)oc2c1 15.3%
CS(=O)(=O)CC[C@@H](C(=O)NCCc1ccccc1)N1Cc2ccccc2C1=O -8.51%
COCc1cc(C)nc2c1C(=O)NC(c1ccc(NC(C)=O)cc1)N2Cc1ccccc1 (stereo not drawn) 35.3%
COc1ccc(S(=O)(=O)c2c(Nc3ccc(C)cc3C)sc(C(=O)c3ccc(F)cc3)c2N)cc1 -32.7%
Cc1cc(C)c(NC(=O)C2CCN(S(=O)(=O)c3c(C)noc3/C=C/c3ccccc3F)CC2)c(C)c1 -6.45%
CCOc1ccc(NC(=O)N(Cc2cn(CC)c3ccccc23)C2CCCCCC2)cc1 -25.8%
CN(C)c1ccc(C(CNC(=O)c2ccccc2Cl)N2CCCC2)cc1 (stereo not drawn) -7.21%
CN1C(=O)Cc2cc(S(=O)(=O)NCc3ccc(Cl)cc3)ccc21 -24.5%
Cc1nnsc1C(=O)Oc1ccc(Cl)cc1 15.2%
COc1ccc(N2CCN(CCCNC(=O)c3cnn(-c4ccc(C)cc4)c3-n3cccc3)CC2)cc1 -12.2%
O=C(NCc1ccccc1)C(=O)NCC(c1cccs1)S(=O)(=O)c1cccs1 (stereo not drawn) -30.7%
O=C(CSc1nc2c([nH]c3ccccc32)c(=O)n1-c1cccc(Cl)c1)c1ccccc1 15%
CCC(Sc1nnc2c(n1)[nH]c1ccccc12)C(=O)Nc1ccccc1OC (stereo not drawn) -6.96%
CCc1ccccc1S(=O)(=O)Cc1ccc(C(=O)NCCc2ccc(C)cc2)o1 31.4%
Cc1cc(C)cc(C(=O)NCCc2csc(-c3ccc(C(F)(F)F)cc3)n2)c1 -18.9%
CCc1ccccc1NC(=O)CSc1ncc2c(n1)-c1cc(Cl)ccc1N(Cc1ccccc1)S2(=O)=O 2.24%
COc1cccc(N2CCN(C3=NS(=O)(=O)C(c4ccc(C)cc4)=C3C)CC2)c1 1.56%
Cc1ccc(Cn2c(=O)n(CCCCC(=O)NCc3ccc4c(c3)OCO4)c(=O)c3ccccc32)cc1 -7.33%
